One block for each binder: values may come before it.
Biological target: T1, human C3d (human, UniProt P01024 fragment)
T1 construct: domain: C3d; also called C3d antigen
Assay: ELISA, human C3d coated on plate

human C3d, sequence (P01024 1002-1303 limits assumed): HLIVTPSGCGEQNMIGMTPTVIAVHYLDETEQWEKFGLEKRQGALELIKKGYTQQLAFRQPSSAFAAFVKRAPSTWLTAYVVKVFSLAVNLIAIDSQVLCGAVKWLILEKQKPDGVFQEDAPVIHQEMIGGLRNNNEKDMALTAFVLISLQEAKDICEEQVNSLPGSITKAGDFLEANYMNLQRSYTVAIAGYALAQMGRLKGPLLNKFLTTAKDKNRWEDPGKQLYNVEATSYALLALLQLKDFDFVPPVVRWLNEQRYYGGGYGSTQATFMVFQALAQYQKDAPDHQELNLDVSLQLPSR

EC50: 0.04 nM
B1: Exemplary Fusion Construct 95 (other)
heavy: QVQLVQSGAEVKKPGASVKVSCKASGYTFTNYYINWVRQAPGQGLEWMGVINPYSGGTSYNQKFKGRVTMTVDTSTSTAYMELSSLRSEDTAVYFCSSPYWGQGTLVTVSSASTKGPSVFPLAPCSRSTSESTAALGCLVKDYFPEPVTVSWNSGALTSGVHTFPAVLQSSGLYSLSSVVTVPSSSLGTKTYTCNVDHKPSNTKVDKRV[human IgG4 Fc with S228P L235E M428L N434S (EU numbers) not given here]
light: not shown

EC50: 0.05 nM
B2: Exemplary Fusion Construct 143 (other)
heavy: QVQLVQSGAEVKKPGASVKVSCKASGYTFTNYYINWVRQAPGQGLEWMGVINPYSGGTSYNQKFKGRVTMTVDTSTSTAYMELSSLRSEDTAVYFCSSPYWGQGTLVTVSSASTKGPSVFPLAPCSRSTSESTAALGCLVKDYFPEPVTVSWNSGALTSGVHTFPAVLQSSGLYSLSSVVTVPSSSLGTKTYTCNVDHKPSNTKVDKRV[human IgG4 Fc with S228P L235E M428L N434S (EU numbers) not given here]GGGGSGGGGSGGGGSEDCNELPPRRNTEILTGSWSDQTYPEGTQAIYKCRPGYRSLGNVIMVCRKGEWVALNPLRKCQKRPCGHPGDTPFGTFTLTGGNVFEYGVKAVYTCNEGYQLLGEINYRECDTDGWTNDIPICEVVKCLPVTAPENGKIVSSAMEPDREYHFGQAVRFVCNSGYKIEGDEEMHCSDDGFWSKEKPKCVEISCKSPDVINGSPISQKIIYKENERFQYKCNMGYEYSERGDAVCTESGWRPLPSCEEKSCDNPYIPNGDYSPLRIKHRTGDEITYQCRNGFYPATRGNTAKCTSTGWIPAPRCTLK
light: DVVMTQSPLSLPVTLGQPASISCKSSQSLLDSDGKTYLNWFQQRPGQSPRRLIYLVSKLDSGVPDRFSGSGSGTDFTLKISRVEAEDVGVYYCWQGTHFPRTFGGGTKVEIKRTVAAPSVFIFPPSDEQLKSGTASVVCLLNNFYPREAKVQWKVDNALQSGNSQESVTEQDSKDSTYSLSSTLTLSKADYEKHKVYACEVTHQGLSSPVTKSFNRGEC

Reference: US20240301043A1 (Q32 BIO, published 2024)
